Test results reported in the supplement of paper PMC4466236.
Whole data set: some 33,000 sequences, median “E-score (dimensionless, -0.5 to 0.5)” near -0.058, cut for the highest 2% near 0.35. This is one part of the list.

system: MvaT; assay: PBM 8-mer E-score (mean of HK and ME arrays) (E-score (dimensionless, -0.5 to 0.5)); higher = stronger relative binding preference; most listed sequences are background and not binding sites
In short: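 Full-length P. aeruginosa MvaT carrying an N-terminal glutathione S-transferase tag was tested by protein binding microarray following a previously described protocol. Two universal double-stranded 60-mer arrays, ME and HK, were used, each with a constant 25-mer primer region and a variable 35-mer region covering all 8-mers. The rank-based E-score is the mean of the two arrays, parsed with a custom script. Its range runs from -0.5 to 0.5 for each 8-mer.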

Sequence	PBM 8-mer E-score
AGTCCCGG	-0.245
AGCTGCGG	-0.194
GCGCTATA	0.165
CACGTTAA	0.163
TGAGACCA	-0.135
ATCTGTTG	-0.0508
CTGCACGC	-0.123
AAGCCTAG	-0.113
ACAGATCG	-0.048
AGTAGAGA	0.0385
CTAGGACC	-0.224
CCCGCGTA	-0.177
CTCGGTAC	-0.0775
TACCGGAA	-0.14
CCCGACAA	-0.168
AGTATAAA	0.381
CGTCTGTA	-0.0521
GCGCTCAC	-0.258
ACAATGGG	0.0959
GAGCGGGC	-0.324
AGGATGAA	-0.15
ATGGGCAC	-0.0848
CAAAGCAA	0.0614
CGAGCGGC	-0.134
CGATGCCG	-0.167

Sequence	PBM 8-mer E-score
CCCATCCA	-0.212
GCCGGCCA	-0.205
ACTCAACC	-0.0486
GAGCTAAC	-0.187
AGTCAGTC	-0.156
AATTCCGG	0.0407
ACCCCAAT	-0.055
ACGAACCC	-0.169
CCGAAGAA	0.0125
TATACTCA	0.29
AGTCAGTA	0.0779
ATAATTTC	0.386
GCTCCTCA	-0.294
ATAGGAAA	0.131
AGTCCTTC	-0.212
GCCAAACC	-0.0379
ATCCTATC	-0.0369
GTGAGACA	-0.0468
TCTGTCAA	-0.142
ATGTCCGC	-0.087
CTGTCTGA	-0.172
GAATTATC	0.147
CACAAAAC	0.045
CCCCATCC	-0.324
TTAGATAA	0.261

Sequence	PBM 8-mer E-score
CGTGCATA	0.281
ATAAGGTG	0.105
GACATCGC	-0.221
ATGGTCCA	-0.0412
TCGGACAA	-0.132
CCCTAGGA	-0.335
AGGTACAT	0.0417
CTCGTATC	-0.166
CGGTTTCC	-0.194
CAACAGTC	-0.128
AATCACGA	-0.0277
ACACCGAT	0.0193
CTCGCGTC	-0.0727
CAATATAC	0.386
AGTTGACA	0.135
ACCGCATA	0.0599
CCGGCGTC	-0.248
CGTGCTTA	0.0775
ACTATTCT	0.208
GCCATCCC	-0.385
CCTACATC	-0.0297
GCTCATCA	-0.237
ACAGACAC	0.0789
AGAATTGC	0.0325
CAAGCTGC	-0.284

Sequence	PBM 8-mer E-score
CCAAGGAC	-0.193
CAATAACA	0.283
AGTGCTAC	-0.0841
AGAACGCA	-0.109
TCGATCAA	0.0431
TGAGCAAA	0.0711
ATGGAGAC	-0.0433
GAGCCCAA	-0.212
CATGCACC	-0.0676
CTCGAGTC	-0.187
ATTATATC	0.444
GGGTTGCA	-0.0596
AAGATTGC	0.0483
CTGCGTGA	-0.129
GGTATGAA	0.0836
AAAGTTAT	0.36
CCAGATAG	-0.154
CGGTATTC	-0.0073
AAGCTATA	0.196
GTTGCGTA	-0.0344
CGAAATAC	0.0434
CGTAACGC	-0.176
AGGTCAAG	-0.222
CCCGCTTA	0.00273
GCAGCTCC	-0.265

Sequence	PBM 8-mer E-score
CAGCCATG	-0.163
AGCAAATA	0.238
GGCTCTAA	0.00956
CAAGGGTC	-0.162
GGTTAGAA	-0.0252
TACTAGAA	0.163
AACGGAGT	-0.0613
ACGTAAGC	-0.199
CGAGGTGC	-0.199
GCTAGCTA	-0.232
ATCTCGTA	-0.0845
ACGCAGAG	-0.286
GGTTAAGA	-0.0299
AGTGTGGG	0.00874
GGCGATTA	-0.00168
AGCAAAGG	-0.128
AATGCTAA	0.219
CAGGCGAC	-0.0385
ATTTCGAA	0.268
CTTGTCCC	-0.21
GAAACTCC	-0.166
CTTTTATC	0.137
TCAGATCA	-0.146
GTACGAGA	-0.126
ACATGACC	0.0083

Sequence	PBM 8-mer E-score
AGTAAGAC	0.0824
GGTGAAAC	-0.0465
CATCCACA	0.00998
CGACCATC	-0.206
AACTTGAG	0.045
ATGTGCTA	0.0602
GTCCCACA	-0.0746
AGTAACTC	0.0799
ATCGAAGG	-0.146
GTGTGAAA	-0.0522
GTAGTACA	0.0678
ATCACGAT	-0.0508
ACGCTAAG	-0.0688
GGACAGGA	-0.166
GGCAGATA	0.0348
CCCACCGA	-0.171
TAATCTGA	0.177
ACGCTTTA	0.116
CGATTTCC	0.048
CAGGTCAC	-0.224
CTATCTGA	-0.00521
GCCGTCGC	-0.208
CCAATGGC	-0.204
AGTCAGCC	-0.175
GATAAAAC	0.275

Sequence	PBM 8-mer E-score
TACCCGGA	-0.141
CCGAGTCA	-0.078
ACTACGGA	0.046
AACACTGC	0.116
ATTCAAGC	-0.0682
TCTGGTCA	-0.151
CAATCATA	0.162
TAAGGGCA	0.0358
ACCAGGGC	-0.31
ATCGGTAG	-0.0749
AGGAGTGG	-0.168
CACTAGGC	-0.2
CACCAAAA	0.0428
ATAAAGAA	0.264
GGAAGACA	-0.0366
AATACCAT	0.235
TAGTCATA	0.175
AAAAGGTA	0.193
ACTCCGAA	-0.0019
ACTATTAG	0.26
CATGTAAA	0.257
CTGATCTA	0.0355
